Experimental data published in article PMC7819943, “Rice protein-binding microarrays: a tool to detect cis-acting elements near promoter regions in rice”.
The other results are listed elsewhere or left out.

The sequences below were run against T1, OsWOX13 (Oryza sativa, UniProt Q5QMM3 1-267) (assay: protein-binding microarray (RPBM); PBS, 2% BSA, 51.3 ng/ul salmon testes DNA, 50 uM zinc acetate, 200 nM TF, 25 C, 1 h; high values mean tight binding). Details: protein: recombinant; tags: N-terminal polyhistidine and DsRed monomer fusion (pET32a); label: CyDye5-dUTP incorporated in the synthesized complementary strand; 3' TTTTT single-stranded linker to array surface; dsDNA, one strand shown.
T1 sequence: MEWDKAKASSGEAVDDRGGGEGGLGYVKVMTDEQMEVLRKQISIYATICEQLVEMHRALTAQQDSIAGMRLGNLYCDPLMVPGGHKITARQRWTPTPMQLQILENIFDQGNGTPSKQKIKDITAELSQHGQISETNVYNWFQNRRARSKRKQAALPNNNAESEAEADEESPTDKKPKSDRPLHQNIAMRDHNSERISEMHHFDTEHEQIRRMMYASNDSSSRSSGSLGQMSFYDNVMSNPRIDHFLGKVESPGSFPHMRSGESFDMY
Outline: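 Ni–NTA purification followed expression in E. coli BL21-CodonPlus of transcription factors fused N-terminally to a polyhistidine tag and DsRed. At 200 nM in PBS with 2% BSA, salmon testes DNA and 50 µM zinc acetate, the protein was incubated for 1 h at 25 °C with a custom Agilent array that had been primer-extended with Cy5-dUTP and blocked with 2% BSA. After washing, the array was read on an Axon 4000B scanner. The binding signal is per-feature fluorescence intensity in arbitrary units.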

Sequence	binding signal
TTATTAATAGGTGTTGATCTAAAATATATCTTTTACATGCCGGAGTCACCTAGTGCAG	6100 fluorescence intensity (a.u.)
CTTAATGACACAAATTTCCGTAGCCTGACAAAGTACACACCGGAGTCACCTAGTGCAG	11100 fluorescence intensity (a.u.)
TCAAGATTGGTGCGATTGAGACCAAAAGCATGGTGTACATCGGAGTCACCTAGTGCAG	30300 fluorescence intensity (a.u.)
GGTTAATTTATACTCATTTTACGATTAACGTTATAAATGACGGAGTCACCTAGTGCAG	30500 fluorescence intensity (a.u.)
TATTTTGTTTGTGATTTGATTTATTATCAAAAGTAATTTACGGAGTCACCTAGTGCAG	7280 fluorescence intensity (a.u.)
AATTTAACTGTAAATATACATATAGTAATTTGAGTTTTATCGGAGTCACCTAGTGCAG	4840 fluorescence intensity (a.u.)
ATTTAAACAAGAATGTAAATTGTTTGACGAGAGACGACGACGGAGTCACCTAGTGCAG	10500 fluorescence intensity (a.u.)
ATTAATTTGTTCTCGTCTTTATTATCTGGGTTGCCCTATACGGAGTCACCTAGTGCAG	26500 fluorescence intensity (a.u.)
ATAAGATTGAAATAGTCTTTACCTGTCGCAACGCACGGATCGGAGTCACCTAGTGCAG	22000 fluorescence intensity (a.u.)
AATAACCACCCAAATTAGATACGGACTAACAGCTGAGCAACGGAGTCACCTAGTGCAG	5970 fluorescence intensity (a.u.)
GGATTGAAGATTGAAGACGGCAGTCAGCTAGCTATGCGAGCGGAGTCACCTAGTGCAG	15500 fluorescence intensity (a.u.)
ACACAGACCAAGGATAATTGATTCTACTTATCATCTATTTCGGAGTCACCTAGTGCAG	12600 fluorescence intensity (a.u.)
TATTGATTAATATGTAAGTATGTGTAACAAATTAATTGTACGGAGTCACCTAGTGCAG	26400 fluorescence intensity (a.u.)
CCTTAATTGCATCGGTTAATCTGAATTTCTCCCTGTAATTCGGAGTCACCTAGTGCAG	32300 fluorescence intensity (a.u.)
AACAATTTGATCAAGAGTTGACCGAGATAATCCCACTTGCCGGAGTCACCTAGTGCAG	4370 fluorescence intensity (a.u.)
ATGATTGAATCCTATAAAATCTTGTGAAATTCCTGTGAAACGGAGTCACCTAGTGCAG	52800 fluorescence intensity (a.u.)
AAATTAATTATACAAATGAACCGTGGCCAAAACTTATTTTCGGAGTCACCTAGTGCAG	4450 fluorescence intensity (a.u.)
ACAAAATCAATCAGTTTCTTTCACGTAAACAAGCTCACAGCGGAGTCACCTAGTGCAG	32000 fluorescence intensity (a.u.)
CTCTGGATCTTGTTAATTAATTAATGAATGAATTCCGGTACGGAGTCACCTAGTGCAG	27100 fluorescence intensity (a.u.)
GTTTCAGCAGTTTTCAATTATCTTGACATCATATATGAGTCGGAGTCACCTAGTGCAG	6260 fluorescence intensity (a.u.)
CTATATTAATTAATGAATTAGCAATTGGATGTACCAATTTCGGAGTCACCTAGTGCAG	38900 fluorescence intensity (a.u.)

Sequence	binding signal
ATAAATCATAATCATGGAGGATATTTGTTATCCTCTAAAACGGAGTCACCTAGTGCAG	5470 fluorescence intensity (a.u.)
AAGCCTAATCTAAATGGATTATTTCTTCCATTCCATGTACCGGAGTCACCTAGTGCAG	6240 fluorescence intensity (a.u.)
ATAGTATATGATGGATGAGATGGATGCATAGATGGATTGGCGGAGTCACCTAGTGCAG	3330 fluorescence intensity (a.u.)
GCTACCAAATTTTGTTAACTATATAATAAATCTTGCTAAACGGAGTCACCTAGTGCAG	4470 fluorescence intensity (a.u.)
TGTTAGTAATAATTAATTATGATGGCAAGTGCATGGCATGCGGAGTCACCTAGTGCAG	19300 fluorescence intensity (a.u.)
CTCCTGAATGTGATTTGAGTGTTTTCTACAACATTTTAATCGGAGTCACCTAGTGCAG	3780 fluorescence intensity (a.u.)
TTAATTGAGCACCACGAGGGAACTAACCGAAAATATGTAGCGGAGTCACCTAGTGCAG	9040 fluorescence intensity (a.u.)
GATAATTTTGTTTGGGTGCTACTCGCGCAATTGCGCGGGCCGGAGTCACCTAGTGCAG	5800 fluorescence intensity (a.u.)
CATGATTTATTTGATAAGCTAGGGGCGCCACGTGGCCCAACGGAGTCACCTAGTGCAG	24000 fluorescence intensity (a.u.)
ACACTAATTTGGAGTATTAAACATATACTAATTACAAAACCGGAGTCACCTAGTGCAG	26600 fluorescence intensity (a.u.)
TTAATTATTAGCTACAGTTGAGCTCGCTCGATTCGATCCCCGGAGTCACCTAGTGCAG	4530 fluorescence intensity (a.u.)
TTAGTAAATATTTACTTCAATTGATGAACTGTGCGCAAACCGGAGTCACCTAGTGCAG	4760 fluorescence intensity (a.u.)
TGGTTACAACTAATTTACTAATCATCATCTGGGATTAGCACGGAGTCACCTAGTGCAG	24900 fluorescence intensity (a.u.)
TTTTACTTTCAATAATTGCCATGACACCTACACCCGGAGGCGGAGTCACCTAGTGCAG	11000 fluorescence intensity (a.u.)
TGGCGTGACCAGATTGATGACATACTGGCCAAGATATGGTCGGAGTCACCTAGTGCAG	15300 fluorescence intensity (a.u.)
ATCGATTTTAATTACCAAACGGTAACGGAATGAATGCTGTCGGAGTCACCTAGTGCAG	16400 fluorescence intensity (a.u.)
ATGATTACTCTAAAATGGACTTATTTCGGAACAAAAGGGCCGGAGTCACCTAGTGCAG	14700 fluorescence intensity (a.u.)
CCGAATTGGCATATTAATGGGCTAATTACGTACGTCGACCCGGAGTCACCTAGTGCAG	39000 fluorescence intensity (a.u.)
TATAATGTGATTACATTATTATAATTTACATGTAACTACACGGAGTCACCTAGTGCAG	37600 fluorescence intensity (a.u.)
GTCGCCTGATTGAGCGCTTCATGATCTTGACTTCTCAACTCGGAGTCACCTAGTGCAG	26400 fluorescence intensity (a.u.)
TTTTAACTGATTAATCTGAAATGTTCGATGTGAAACAGGACGGAGTCACCTAGTGCAG	40000 fluorescence intensity (a.u.)

Sequence	binding signal
TGTCTGACTGACTGACTGGCTGCTGCTGCTGCTCATTCCTCGGAGTCACCTAGTGCAG	23800 fluorescence intensity (a.u.)
GTTTTAATTAAGATAATGGAAGATGTAGGAAAGATACTAGCGGAGTCACCTAGTGCAG	15800 fluorescence intensity (a.u.)
TGATGTGATTTATCGACTAAGCCAACAAAGCTTAGCATGTCGGAGTCACCTAGTGCAG	11900 fluorescence intensity (a.u.)
TAAATTGGTGAATGTACTGTGATAGCCAGCTATTAAACTACGGAGTCACCTAGTGCAG	12100 fluorescence intensity (a.u.)
CCTAACTAATCACTGGGGTCAGCTCTTAAACTGCTAAGGCCGGAGTCACCTAGTGCAG	17000 fluorescence intensity (a.u.)
AAAGTGACTGAATTTTAAGTCATCGGAAATTTACACGCTCCGGAGTCACCTAGTGCAG	15400 fluorescence intensity (a.u.)
AGACGAATTTATTAAGCCTAATTAATCCATCATTACCAAACGGAGTCACCTAGTGCAG	5540 fluorescence intensity (a.u.)
AATAACATTCATTGAAATAAATTAAAATCCTAAACTACATCGGAGTCACCTAGTGCAG	4420 fluorescence intensity (a.u.)
ATTAAAGATAATTAAATCAAAATGGATAGCCACATACAAGCGGAGTCACCTAGTGCAG	14800 fluorescence intensity (a.u.)
CTATCCCCAATCAATCACAAGAACATTATAAAACTCCTAGCGGAGTCACCTAGTGCAG	18100 fluorescence intensity (a.u.)
CTCTAATGAATGTGCATGTTATGTTTCCAAATCTCACTAGCGGAGTCACCTAGTGCAG	3850 fluorescence intensity (a.u.)
CAGGATTGACTATCCGTGTTGGATGGATTGAGCGGAGACCCGGAGTCACCTAGTGCAG	35600 fluorescence intensity (a.u.)
ACTAAATTGAGACAGCAGTACTTAATTCCTGCATGCGCACCGGAGTCACCTAGTGCAG	45800 fluorescence intensity (a.u.)
ACGCCGACGATCAATTAAGATGGAGGACAAGCTGATACTGCGGAGTCACCTAGTGCAG	6630 fluorescence intensity (a.u.)
GTACTTAAATTGCAGTGTACATATTTAGCAGAGTTAGCATCGGAGTCACCTAGTGCAG	6060 fluorescence intensity (a.u.)
CTTCAAATTAATCTACGTTTAATACTTCAAATGTGTTTCCCGGAGTCACCTAGTGCAG	6670 fluorescence intensity (a.u.)
AACACTATGATCTAAGTATAATTAGTAATTTAGTATACTACGGAGTCACCTAGTGCAG	5480 fluorescence intensity (a.u.)
GTAAATTTAAAATCCGTTCTCTATACGGGCTTGTGCCGCCCGGAGTCACCTAGTGCAG	11000 fluorescence intensity (a.u.)
TACAATTTACCTTAATTACACTCCCGACCTCTGCATAACTCGGAGTCACCTAGTGCAG	11500 fluorescence intensity (a.u.)
CACGTGAAATTAATTATCTTAATATGAATAGGAAGTGCAACGGAGTCACCTAGTGCAG	20000 fluorescence intensity (a.u.)
TAATCACGGACTAATTAGGCTTAAAAGATTCGTCTCGCGACGGAGTCACCTAGTGCAG	9940 fluorescence intensity (a.u.)

Sequence	binding signal
TAAGCCTAATTAATCCATCATTAGCAAATATTTACTGTAGCGGAGTCACCTAGTGCAG	14100 fluorescence intensity (a.u.)
GTTTAATTAACTGCACATGTTGAATAACAATCCTGTCATTCGGAGTCACCTAGTGCAG	40800 fluorescence intensity (a.u.)
GGCAGCAAGACCAATTTTAATTGAAGACCACGGAAGGAGCCGGAGTCACCTAGTGCAG	3450 fluorescence intensity (a.u.)
ACACGTGATTATAGTAAGATTAATTAAGTAACGCAAACAACGGAGTCACCTAGTGCAG	20300 fluorescence intensity (a.u.)
TTCTGCTGATTGGAATGACTACAACACTAGAGTTGTCTGTCGGAGTCACCTAGTGCAG	56100 fluorescence intensity (a.u.)
ACCGCCAATTACTTCCACCTTTATAAATAGCCTCCTCCCTCGGAGTCACCTAGTGCAG	5880 fluorescence intensity (a.u.)
ACTTGTATATTGATGAAATCTGTCATCTCCAAACGAAATGCGGAGTCACCTAGTGCAG	5530 fluorescence intensity (a.u.)
AAATTCCTATTACAAGCTGGTAATTGAGTTGCTGGTACGCCGGAGTCACCTAGTGCAG	5340 fluorescence intensity (a.u.)
CAAATTATCAGTCCATTACCAGAGGGATTAACTGAACAGGCGGAGTCACCTAGTGCAG	14500 fluorescence intensity (a.u.)
ACATAATTAGTTTATCTCTCCTCAAGCTGGTGCATCTCTCCGGAGTCACCTAGTGCAG	31200 fluorescence intensity (a.u.)
GCATAACTGCACTAAACTACAACTTCTCCTACACCGTCAACGGAGTCACCTAGTGCAG	4860 fluorescence intensity (a.u.)
GAATACAAATTTAGTTTAACATAGTGCCGAGCCAATATGGCGGAGTCACCTAGTGCAG	4740 fluorescence intensity (a.u.)
AGGATTAAATCAAATCAAGCCGTCTCGCCTTGGGGTTTCCCGGAGTCACCTAGTGCAG	8010 fluorescence intensity (a.u.)
AGTTAATAGATTCAACGGTTGGATTAAAGTTGTACTACACCGGAGTCACCTAGTGCAG	14000 fluorescence intensity (a.u.)
GGTAATTTGGGTACAGATAGTACTCTGTTGCACCAATCTGCGGAGTCACCTAGTGCAG	12600 fluorescence intensity (a.u.)
TGTCAATATGGGTGAATTGACATGCTATGATCAGGCAAAGCGGAGTCACCTAGTGCAG	9900 fluorescence intensity (a.u.)
ACAATAATTCTGAAGTAATTAGGAGTACGACTCTCGTCCCCGGAGTCACCTAGTGCAG	13900 fluorescence intensity (a.u.)
AATTTCTGATTGTTTGTCAGTTCAGCGTTGATGCTGTAATCGGAGTCACCTAGTGCAG	16400 fluorescence intensity (a.u.)
TTGTTGACAATCACGATTCATGACAAAAGAAGATTGAGAGCGGAGTCACCTAGTGCAG	13600 fluorescence intensity (a.u.)
ATTAATTTAAGGAGTTAATTTATTAGGTGAAAATTCCTTACGGAGTCACCTAGTGCAG	20200 fluorescence intensity (a.u.)
TAGTTAATTTAATATAGTCAATTCATACAATAGCTACCTACGGAGTCACCTAGTGCAG	19500 fluorescence intensity (a.u.)
